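A five-concentration, 48-hour dose response in 96-well plates underlies each endpoint, interpolated linearly between surrounding concentrations. The concentration for 50% growth inhibition is given as GI50. TGI denotes the concentration required for complete inhibition of growth.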
System: NCI-H322M lung
Test: NCI anticancer screen, dose series, 48 h

| SMILES | GI50 [µM] | TGI [µM] |
| --- | --- | --- |
| COc1ccc2sc(NC(=O)CCCCCCNC(=O)C(O)(O)C(F)(F)F)nc2c1 | 1.42 | 14.3 |
| O=C(Nc1cc(Cl)cc(Cl)c1)Nc1nc2ccc([N+](=O)[O-])cc2s1 | 1.54 | 8.84 |
| O=C(Nc1cccc(-c2nc(-c3ccc(NC(=O)c4cccnc4)cc3Cl)no2)c1)Nc1ccc(NC(=O)C2CC2)c(C(F)(F)F)c1 | 0.474 | 2.2 |
| IP(CCCSc1n(Cc2ccc3ccccc3c2)c(-c2ccccc2)c(-c2ccccc2)[n+]1Cc1ccc2ccccc2c1)(c1ccccc1)(c1ccccc1)c1ccccc1 | 3.62 | 25.2 |

— PubChem BioAssay (NCI)
